Assay results taken from PubChem BioAssay AID1794842 (National Center for Advancing Translational Sciences (NCATS), 2023).
Out of some 2,800 compounds screened, fewer than 10 were called active. The call rests on the fitted dose curve; in most records, active means well fitted curve in the direction sought with a large enough effect; inconclusive means small, poorly fitted or top-dose-only effect, or another doubt; inactive means no such curve, though single readings can be large or run the other way. This is one part of the list.

Target: Metallo-beta-lactamase type 2 (Klebsiella pneumoniae) (UniProt C7C422)
Test: qHTS to identify inhibitors of the New Delhi Metallo-beta-lactamase (NDM): Meropenem screen against the machine-based learning selections. Further: % of control where 0% means no effect.
Details: Purified NDM-1, meropenem hydrolysis, absorbance 300 nm; at 38.4 µM (top of the series) unless noted
Outline: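 Hydrolysis by 2 nM NDM-1 was followed by absorbance after >30 min compound preincubation in HEPES pH 7.0 buffer with 1 uM Zn2SO4. For nitrocefin (16.7 uM, 15 min, 485 nm) and meropenem (50 uM, 30 min, 300 nm), each substrate ran on separate plates.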

Chain of UniProt C7C422 (C7C422 whole entry, looked up): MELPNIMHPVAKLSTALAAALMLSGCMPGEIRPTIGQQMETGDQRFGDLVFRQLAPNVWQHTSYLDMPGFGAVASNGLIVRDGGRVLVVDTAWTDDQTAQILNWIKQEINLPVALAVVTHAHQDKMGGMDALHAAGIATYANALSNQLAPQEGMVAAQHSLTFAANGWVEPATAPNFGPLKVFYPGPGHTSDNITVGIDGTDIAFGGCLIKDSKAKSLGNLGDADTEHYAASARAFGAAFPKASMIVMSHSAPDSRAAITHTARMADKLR

Activity change, negative = inhibition, inactive:
COc1cccc(NC(=O)N[C@H](C)c2onc(-c3ccc(F)cc3)c2C(=O)O)c1 3.68% [at 57.5 µM]
COc1ccc(CNC[C@H]2COCc3nc4cc(F)ccc4n32)cn1 -0.329% [at 57.5 µM]
O=C(O)c1cccc(CN2CC(CNc3ccccc3)C3(C2)CN(c2ccccc2)C3)c1 (centres undefined) 0.366% [at 57.5 µM]
Cc1cccc(-c2ccc3c(c2)C(=O)N2C[C@H](O)C[C@H]2C(=O)N3)c1C -1.55% [at 57.5 µM]
CC(=O)N1CC[C@H](c2nc3ccc(C#N)cc3[nH]2)C1 0.906% [at 76.7 µM]
C[C@@H]1C(=O)O[C@H]2[C@H]1CC[C@@]1(C)Cc3sc(NS(=O)(=O)c4ccc(Cl)cc4)nc3[C@@H](C)[C@H]21 -0.513%
CNC(=O)[C@@H]1C[C@H](Oc2cccnc2)CN1C(=O)c1ccc(OC)nc1 -0.275%
O=C(NC1CCCN(CCc2ccccc2)C1)C1(Cn2cccn2)CC1 (centres undefined) -1.99%
O=c1cc(-c2cccnc2)oc2c(-c3cccc(CO)c3)nccc12 11.4% [at 57.5 µM]
O=C(NC[C@H]1COCc2nc3ccccc3n21)c1cccnc1 -0.439% [at 57.5 µM]
C[S+](=O)([O-])Nc1cccc(-c2cc(-c3cccnc3)c3cncn3c2)c1 22.6% [at 57.5 µM]
CC(C)CN1C(=O)COC[C@@H]1[C@H](O)c1ccc(NC(=O)c2ccco2)cc1 9.23% [at 57.5 µM]
COc1cccc(NC(=O)N2CCN3C(=O)N(Cc4ccc(C)cc4)C[C@H]3C2)c1 -1.16% [at 57.5 µM]
c1cncc(CN2CCn3c(nnc3C3CCCNC3)C2)c1 (centres undefined) 53.6%
COCc1cn(C[C@H]2C[C@@H](NS(=O)(=O)c3ccccc3)[C@H](O)[C@@H]2O)nn1 -1.54% [at 57.5 µM]
O=C(O)Cn1ccc2cc(OCc3cccc(-c4ccccc4O)c3)cnc21 17.2% [at 57.5 µM]
COc1ccc(-c2ccc3ncc(Nc4ccc(C(N)=O)cc4)n3n2)cn1 52% [at 57.5 µM]
O=C(N[C@H]1CCN2C(=O)c3ccc(Cl)cc3NC(=O)[C@H]12)c1cccs1 2.84% [at 57.5 µM]
CCN1C(=O)Cc2cc(C(=O)NCc3cc(OC)ccc3OC)ccc21 0.875%
C[S+](=O)([O-])c1cccc(Nc2n[nH]c(C(O)c3ccccc3)n2)c1 (centres undefined) -0.744% [at 57.5 µM]
CC(=O)N1CCC(N[C@@H]2CO[C@H](CNC(=O)c3ccccc3)[C@H]2O)CC1 0.524% [at 57.5 µM]
COc1ccc(CN2CCC[C@H]2c2nc(-c3ccc(N(C)C)nc3)no2)c(O)c1 15.4% [at 57.5 µM]
Oc1cccc(-c2cc(-c3ccncc3)c3cncn3c2)c1 41.6% [at 76.7 µM]
COc1ccc2c(c1)nc1n2[C@@H](CNC(=O)c2ccncc2)COC1 4.11% [at 57.5 µM]
CC(C)(O)CCc1ccc(C(=O)N2CCC(c3cccc(O)c3)CC2)cc1 1.4%
COC1CCN(CC2CCCCCN2C(=O)CCCc2ccccc2)CC1 (centres undefined) -0.353%
Cc1cc(C(=O)N2C[C@@H](COc3ccccc3)[C@H](C(N)=O)C2)no1 -3.99%
CC(=O)N1CCC(NC[C@H]2COCc3nc4cc(C)ccc4n32)CC1 -0.677% [at 57.5 µM]
c1ccc(CNc2ncc(CN3CCC4(CCNCC4)CC3)cn2)cc1 0.519%
CNc1ccc(OC2CCN(C(=O)CCc3nc4ccccc4[nH]3)C2)nc1 (centres undefined) 2.49%
Cn1cccc1C(=O)N1CC[C@H](NC(=O)NC2CCCCC2)[C@H]1C(=O)N1CCC[C@@H]1C(N)=O 1.12%
CNC(=O)[C@@H](c1ccccc1F)N1CCC[C@H]1C(=O)NCC(C)C 68% [at 57.5 µM]
COc1ncccc1CNC[C@H]1O[C@@H]2C[C@@H](CC(=O)N3CCOCC3)O[C@@H]2[C@@H]1O -0.298% [at 57.5 µM]
c1ccc(Nc2cc3c(cn2)CN(Cc2cnc[nH]2)CCN3)cc1 11.8% [at 57.5 µM]
COc1ccc(C(=O)N2CC[C@@H](CC(=O)O)[C@@H](CCN3CCC[C@H]3C(N)=O)C2)cc1 52.7% [at 57.5 µM]
O=C(COc1ccccc1)Nc1ccc([C@@H](O)[C@H]2COCC(=O)N2Cc2ccccc2F)cc1 -1.9%
O=C(NC[C@H]1O[C@@H]2C[C@@H](CC(=O)N3CCC(F)(F)C3)O[C@@H]2[C@@H]1O)NC1CCC1 1.2% [at 57.5 µM]
COc1ccccc1C(O)c1nc(Nc2ccncc2)n[nH]1 (centres undefined) 13.5% [at 57.5 µM]
CCOc1ccccc1NC(=O)N1C[C@H](Oc2ccccc2)C[C@@H]1C(=O)NCCOC 0.201%
CN[C@@H](CO)C(=O)NCc1nc(-c2cccc(F)c2)c(-c2ccccn2)[nH]1 29%
O=C(Cc1ccc(N(Cc2ccc(F)cc2)C(=O)c2ccco2)cc1)NCc1ccc(F)cc1 3.53%
COC(=O)C(=O)N1CC[C@@H]2[C@H]1C(=O)N(C(C)C)C(=O)N2Cc1cccc(F)c1 -0.0056% [at 57.5 µM]
CN1C[C@@H](NS(C)(=O)=O)C[C@H]1c1nc(-c2ccc(Cl)cc2)no1 0.207% [at 57.5 µM]
COc1ccc(-c2nnc3n2CCN(C(=O)C(C)(C)C)C3)cc1 0.397% [at 57.5 µM]
CC1CCN(C(=O)c2ccccc2OCC2CCCN(C(=O)c3ccncc3)C2)CC1 (centres undefined) 1.25%
O=c1cc(-c2ccccn2)oc2c(Nc3ccccc3)nccc12 21.6% [at 57.5 µM]
Cc1cc(C)c(CNC(=O)c2nc(Nc3ccccc3)cc3[nH]ccc23)c(=O)[nH]1 15.4% [at 57.5 µM]
O=C(COc1ccccc1)N[C@H]1CO[C@H]2[C@@H]1OC[C@H]2OC(=O)Nc1ccccc1 -1.82% [at 57.5 µM]
O=C1NCCC[C@@H]1NC(=O)[C@H]1CN(C(=O)c2cccc(F)c2)CCN1S(=O)(=O)c1ccc(F)cc1 -0.325%
CC(C)C[C@@H]1N[C@H](C(=O)NCc2ccc(C(F)(F)F)cc2)Cc2c[nH]c3cccc1c23 0.524% [at 57.5 µM]
CC1=C[C@@H](CNC(=O)C2CC2)[C@H](C(C)C)C[C@H]1CC(=O)N1CCOCC1 -0.933% [at 57.5 µM]
COC(=O)[C@@H]1Cc2ncn(Cc3ccc(OC)cc3)c2CN1C(=O)c1ccc(C#N)cc1 0.586% [at 57.5 µM]
CC1CCN([C@@H]2[C@H](O)[C@H](CO)O[C@@H]2CNC(=O)c2ccccc2)CC1 18.5% [at 57.5 µM]
CC(C)(C)CC(=O)Nc1ccc([C@@H](O)[C@H]2COCC(=O)N2Cc2ccccc2F)cc1 0.758% [at 57.5 µM]
O=C(NCc1csc(-c2cnccn2)n1)C(c1cccnc1)N1CCOCC1 (centres undefined) 4.82%
O=C(c1ccc(Oc2ccccc2)cc1)N1CCNc2cnc(Nc3cccc(C(F)(F)F)c3)nc2C1 1.44%
COCCNC(=O)[C@H]1C[C@H](Oc2ccccc2)CN1C(=O)Cc1cccc(C)c1 0.106%
CS(=O)(=O)Nc1cc(-c2noc([C@@H]3CCCN3Cc3ccccc3)n2)ccn1 0.719% [at 57.5 µM]
O=C(c1ccc(NCc2ccncc2)cc1)N1CCCC2(CCNCC2)CC1 58%
NC(=O)c1cccc(-c2n[nH]c3c2CC(=O)N(CCOc2ccccc2)C3)c1 -3% [at 57.5 µM]
O=C(Cc1c[nH]c2ncc(-c3ccccc3Oc3ccccc3)cc12)NCc1cccnc1 8.58% [at 57.5 µM]
CCCS(=O)(=O)N1CCC(Oc2nccnc2N2CCOCC2)C1 (centres undefined) 5.44%
Cn1c(CN2CCOCC2)nnc1C1CCCN(S(=O)(=O)C2CC2)C1 (centres undefined) 1.93%
Cc1noc2c(Nc3ccc(C(N)=O)cc3)cc(-c3cccnc3)nc12 5.05% [at 57.5 µM]
COc1ccccc1C(=O)NC1CCN(c2ccc(C)cc2)C1=O (centres undefined) 2.2%
COc1ccc(CC(=O)N2CC(CO)C3(CCNCC3)C2)cc1 (centres undefined) 0.646%
CC(C)c1cccc(NC(=O)c2ccc3c(c2)N(C)C2CCCCN2C3=O)c1 (centres undefined) 0.56%
O=C(CN1C(=O)CNC1=O)NCCc1noc(-c2ccccc2)n1 -3.49%
Cc1ccc(-c2cnc([C@@H]3COCCN3Cc3ccccc3F)[nH]2)cc1 1.25% [at 57.5 µM]
C[S+](=O)([O-])CCn1ncc2cc(OCc3cccc(-c4ccccc4O)c3)ccc21 3.5% [at 57.5 µM]
Cc1cc(C(=O)N[C@H](C)c2onc(C)c2C(=O)O)c(C)o1 18.3% [at 57.5 µM]
COc1ccc(CN2CC[C@@H]3[C@H]2C(=O)NC[C@H](CCC(=O)NCc2ccc(F)cc2)N3C)cc1 0.433%
CCn1nc(C)cc1C(=O)N1CCOC[C@H](Oc2cccnc2)C1 -2.79% [at 57.5 µM]
CC(C)CCN1CCNC(=O)C1CC(=O)N(Cc1nccs1)C1CC1 (centres undefined) 5.54%
